# According to the supplement of paper PMC10037445:
# In all, about 2,900 compounds were measured (“NF-kB SEAP reporter activity, fold change vs agonist alone”: median about 0.99, highest 2% from about 2.6 on). This is one part of the list.
# Columns and labels:
# RAW-Dual [1] = assay: NF-kB SEAP reporter activity, fold change vs agonist alone; higher = enhanced NF-kB activity; settings: library stock concentration (final ~1000-fold dilution): 10 mM
# Summary of the method: (§1)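 RAW-Dual macrophages were seeded in DMEM at 50,000 cells/well in 384-well plates, given 50 nL of library stock by pin tool, and given a PRR agonist 1 h later. Plates were held at 37 °C, 5% CO2 for 20 hours, after which supernatant was read for IRF by QuantiLuc luminescence and for NF-κB by QuantiBlue absorbance at 620 nm. Reporter activity is expressed as fold change over wells that received agonist alone. A well was called cytotoxic when IncuCyte confluency fell below 70% of agonist controls in both mask sets.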
# RAW-Dual [2] = assay: NF-kB SEAP reporter activity, fold change vs agonist alone; cytotoxicity flag (confluency mask): not cytotoxic; higher = enhanced NF-kB activity
# Summary of the method: as §1
# RAW-Dual [3] = assay: NF-kB SEAP reporter activity, fold change vs agonist alone; cytotoxicity flag (confluency mask): cytotoxic (confluency <70% of control); higher = enhanced NF-kB activity
# Summary of the method: as §1
# [4] = cytotoxicity flag (confluency mask): not cytotoxic, agonist: Imiquimod (TLR7) […]
# [5] = cytotoxicity flag (confluency mask): not cytotoxic, agonist: MPLA (TLR4) […]
# [6] = agonist: ODN 1826 (TLR9) 0.5 ug/mL
# [7] = agonist: Pam2CSK4 (TLR2/6) 0.1 ug/mL
# [8] = agonist: Pam3CSK4 (TLR2/1) 0.1 ug/mL
structure (smiles),measurement,setting,value
Nc1nc(N)c(N=O)c(OCC2CCCCC2)n1,NF-kB SEAP reporter activity,RAW-Dual [1]; [4],0.752
same,NF-kB SEAP reporter activity,RAW-Dual [1]; [5],1.66
Nc1nc(N)c(N=O)c(OCC2CCCCC2)n1 (library stock concentration (final ~1000-fold dilution): 10 mM),NF-kB SEAP reporter activity,RAW-Dual [2]; agonist: LPS (TLR4) 0.1 ug/mL,1.39
same,NF-kB SEAP reporter activity,RAW-Dual [2]; [6],0.97
same,NF-kB SEAP reporter activity,RAW-Dual [2]; [7],1.04
same,NF-kB SEAP reporter activity,RAW-Dual [2]; [8],0.655
Cn1cnc2c(F)c(Nc3ccc(Br)cc3F)c(C(=O)NOCCO)cc21,NF-kB SEAP reporter activity,RAW-Dual [1]; [4],0.193
same,NF-kB SEAP reporter activity,RAW-Dual [1]; [5],0.23
Cn1cnc2c(F)c(Nc3ccc(Br)cc3F)c(C(=O)NOCCO)cc21 (library stock concentration (final ~1000-fold dilution): 10 mM),NF-kB SEAP reporter activity,RAW-Dual [2]; agonist: LPS (TLR4) 0.1 ug/mL,0.182
same,NF-kB SEAP reporter activity,RAW-Dual [2]; [6],0.308
same,NF-kB SEAP reporter activity,RAW-Dual [2]; [7],0.0645
same,NF-kB SEAP reporter activity,RAW-Dual [2]; [8],0.118
CN(C(Cc1ccc(OS(=O)(=O)c2cccc3cnccc23)cc1)C(=O)N1CCN(c2ccccc2)CC1)S(=O)(=O)c1cccc2cnccc12 (stereo not given),NF-kB SEAP reporter activity,RAW-Dual [1]; [4],1.12
same,NF-kB SEAP reporter activity,RAW-Dual [1]; [5],1.32
CN(C(Cc1ccc(OS(=O)(=O)c2cccc3cnccc23)cc1)C(=O)N1CCN(c2ccccc2)CC1)S(=O)(=O)c1cccc2cnccc12 (stereo not given) (library stock concentration (final ~1000-fold dilution): 10 mM),NF-kB SEAP reporter activity,RAW-Dual [2]; agonist: LPS (TLR4) 0.1 ug/mL,1.47
same,NF-kB SEAP reporter activity,RAW-Dual [2]; [6],1.13
same,NF-kB SEAP reporter activity,RAW-Dual [2]; [7],0.814
same,NF-kB SEAP reporter activity,RAW-Dual [2]; [8],0.751
COC1/C=C/OC2(C)Oc3c(C)c(O)c4c(O)c(c5c(nc6cc(C)ccn65)c4c3C2=O)NC(=O)/C(C)=C\C=C\C(C)C(O)C(C)C(O)C(C)C(OC(C)=O)C1C (stereo not given),NF-kB SEAP reporter activity,RAW-Dual [1]; [4],0.894
same,NF-kB SEAP reporter activity,RAW-Dual [1]; [5],0.832
COC1/C=C/OC2(C)Oc3c(C)c(O)c4c(O)c(c5c(nc6cc(C)ccn65)c4c3C2=O)NC(=O)/C(C)=C\C=C\C(C)C(O)C(C)C(O)C(C)C(OC(C)=O)C1C (stereo not given) (library stock concentration (final ~1000-fold dilution): 10 mM),NF-kB SEAP reporter activity,RAW-Dual [2]; agonist: LPS (TLR4) 0.1 ug/mL,1.17
same,NF-kB SEAP reporter activity,RAW-Dual [2]; [6],1.03
same,NF-kB SEAP reporter activity,RAW-Dual [2]; [7],0.971
same,NF-kB SEAP reporter activity,RAW-Dual [2]; [8],0.975
CN1CCC(Nc2nc(Nc3ccc(Oc4ccccc4)cc3)c3c(=O)[nH]cc(Br)c3n2)CC1 (library stock concentration (final ~1000-fold dilution): 10 mM),NF-kB SEAP reporter activity,RAW-Dual [2]; agonist: LPS (TLR4) 0.1 ug/mL,0.817
same,NF-kB SEAP reporter activity,RAW-Dual [2]; [6],0.899
same,NF-kB SEAP reporter activity,RAW-Dual [2]; [7],0.822
same,NF-kB SEAP reporter activity,RAW-Dual [2]; [8],0.933
CN1CCC(Nc2nc(Nc3ccc(Oc4ccccc4)cc3)c3c(=O)[nH]cc(Br)c3n2)CC1,NF-kB SEAP reporter activity,RAW-Dual [1]; [4],0.999
same,NF-kB SEAP reporter activity,RAW-Dual [1]; [5],1.01
NC(=O)c1cccc(-c2cccc(OC(=O)NC3CCCCC3)c2)c1 (library stock concentration (final ~1000-fold dilution): 10 mM),NF-kB SEAP reporter activity,RAW-Dual [2]; agonist: LPS (TLR4) 0.1 ug/mL,0.736
same,NF-kB SEAP reporter activity,RAW-Dual [2]; [6],0.771
same,NF-kB SEAP reporter activity,RAW-Dual [2]; [7],1.16
same,NF-kB SEAP reporter activity,RAW-Dual [2]; [8],1.16
NC(=O)c1cccc(-c2cccc(OC(=O)NC3CCCCC3)c2)c1,NF-kB SEAP reporter activity,RAW-Dual [1]; [4],1.11
same,NF-kB SEAP reporter activity,RAW-Dual [1]; [5],1.13
Cc1[nH]c(=O)c(C#N)cc1-c1ccc2nccn2c1,NF-kB SEAP reporter activity,RAW-Dual [1]; [4],0.701
same,NF-kB SEAP reporter activity,RAW-Dual [1]; [5],0.957
Cc1[nH]c(=O)c(C#N)cc1-c1ccc2nccn2c1 (library stock concentration (final ~1000-fold dilution): 10 mM),NF-kB SEAP reporter activity,RAW-Dual [2]; agonist: LPS (TLR4) 0.1 ug/mL,0.814
same,NF-kB SEAP reporter activity,RAW-Dual [2]; [6],0.943
same,NF-kB SEAP reporter activity,RAW-Dual [2]; [7],1.07
same,NF-kB SEAP reporter activity,RAW-Dual [2]; [8],0.818
CCN(CC)CCNC(=O)c1c(C)[nH]c(/C=C2/C(=O)Nc3ccc(-c4csc(-c5ccccc5)n4)cc32)c1C (library stock concentration (final ~1000-fold dilution): 10 mM),NF-kB SEAP reporter activity,RAW-Dual [3]; agonist: LPS (TLR4) 0.1 ug/mL,0.882
same,NF-kB SEAP reporter activity,RAW-Dual [3]; [6],0.397
same,NF-kB SEAP reporter activity,RAW-Dual [3]; [7],0.37
same,NF-kB SEAP reporter activity,RAW-Dual [3]; [8],0.645
CCN(CC)CCNC(=O)c1c(C)[nH]c(/C=C2/C(=O)Nc3ccc(-c4csc(-c5ccccc5)n4)cc32)c1C,NF-kB SEAP reporter activity,"RAW-Dual [1]; cytotoxicity flag (confluency mask): cytotoxic (confluency <70% of control), agonist: Imiquimod (TLR7) […]",1.35
same,NF-kB SEAP reporter activity,"RAW-Dual [1]; cytotoxicity flag (confluency mask): cytotoxic (confluency <70% of control), agonist: MPLA (TLR4) […]",1.55
COc1c(-c2ccc3cc(NS(C)(=O)=O)ccc3c2)cc(-n2ccc(=O)[nH]c2=O)cc1C(C)(C)C (library stock concentration (final ~1000-fold dilution): 10 mM),NF-kB SEAP reporter activity,RAW-Dual [2]; agonist: LPS (TLR4) 0.1 ug/mL,1.69
same,NF-kB SEAP reporter activity,RAW-Dual [2]; [6],0.702
same,NF-kB SEAP reporter activity,RAW-Dual [2]; [7],0.56
same,NF-kB SEAP reporter activity,RAW-Dual [2]; [8],0.383
COc1c(-c2ccc3cc(NS(C)(=O)=O)ccc3c2)cc(-n2ccc(=O)[nH]c2=O)cc1C(C)(C)C,NF-kB SEAP reporter activity,RAW-Dual [1]; [5],1.35
NC1CONC1=O (stereo not given),NF-kB SEAP reporter activity,RAW-Dual [1]; [4],0.947
same,NF-kB SEAP reporter activity,RAW-Dual [1]; [5],1.19
NC1CONC1=O (stereo not given) (library stock concentration (final ~1000-fold dilution): 10 mM),NF-kB SEAP reporter activity,RAW-Dual [2]; agonist: LPS (TLR4) 0.1 ug/mL,1.64
same,NF-kB SEAP reporter activity,RAW-Dual [2]; [6],1.13
same,NF-kB SEAP reporter activity,RAW-Dual [2]; [7],1.33
same,NF-kB SEAP reporter activity,RAW-Dual [2]; [8],1.31
Cc1cc(Nc2nc(NC(C)c3ccc(F)cc3)c(C#N)cc2F)n[nH]1 (stereo not given) (library stock concentration (final ~1000-fold dilution): 10 mM),NF-kB SEAP reporter activity,RAW-Dual [2]; agonist: LPS (TLR4) 0.1 ug/mL,1.87
same,NF-kB SEAP reporter activity,RAW-Dual [2]; [6],0.965
same,NF-kB SEAP reporter activity,RAW-Dual [2]; [7],1.44
same,NF-kB SEAP reporter activity,RAW-Dual [2]; [8],0.993
Cc1cc(Nc2nc(NC(C)c3ccc(F)cc3)c(C#N)cc2F)n[nH]1 (stereo not given),NF-kB SEAP reporter activity,RAW-Dual [1]; [4],1
same,NF-kB SEAP reporter activity,RAW-Dual [1]; [5],0.984
Nc1ccc(-c2cccc(C(=O)Nc3cnc4nc(N5CCOCC5)oc4c3)n2)cn1 (library stock concentration (final ~1000-fold dilution): 10 mM),NF-kB SEAP reporter activity,RAW-Dual [2]; agonist: LPS (TLR4) 0.1 ug/mL,1.43
same,NF-kB SEAP reporter activity,RAW-Dual [2]; [6],1.01
same,NF-kB SEAP reporter activity,RAW-Dual [2]; [7],0.911
same,NF-kB SEAP reporter activity,RAW-Dual [2]; [8],1.33
Nc1ccc(-c2cccc(C(=O)Nc3cnc4nc(N5CCOCC5)oc4c3)n2)cn1,NF-kB SEAP reporter activity,RAW-Dual [1]; [4],1.04
same,NF-kB SEAP reporter activity,RAW-Dual [1]; [5],1.08
O=[N+]([O-])c1ccc(Nc2ccccc2-c2ccccc2)c2nonc12 (library stock concentration (final ~1000-fold dilution): 10 mM),NF-kB SEAP reporter activity,RAW-Dual [2]; agonist: LPS (TLR4) 0.1 ug/mL,2.02
same,NF-kB SEAP reporter activity,RAW-Dual [2]; [6],1.02
same,NF-kB SEAP reporter activity,RAW-Dual [2]; [7],0.555
same,NF-kB SEAP reporter activity,RAW-Dual [2]; [8],0.754
